We go through 57 compounds from PubChem BioAssay AID463173 (ICCB-Longwood Screening Facility, Harvard Medical School, 2010).

SMILES strings stand for the structures. Hit rate of the full screen: of about 52,000 compounds, about 4,300 (8.3%) were called active. Cut-off read from the data, not from the text of the source: active = survival mostly below about 52% (no sharp cut-off); inactive = mostly above about 56%. The list shows a part of the results.

In this test the test system is DeltatarO mutant. The test is described as follows: growth inhibition of S. aureus wild type versus tarO mutant, primary screen, teichoic acid synthesis inhibitors, RN4220, OD600 (AID 463173). To be noted: OD600, 18 h, active compounds read low, screened at 18.75 µg/mL (by protocol).
Regarding `O=C1CN(C(=O)c2ccccc2C(F)(F)F)C(c2ccccc2)c2cc(F)ccc2N1` (configuration not stated), the survival is inactive: 72%. As for `COc1cc2c(cc1OC)C(COc1ccc3c(C)cc(=O)oc3c1)N(C(=O)c1ccc(Cl)cc1)CC2` (configuration not stated), the survival is inactive: 73%. The value for `Cc1ccc(C(=O)C2=C(O)C(=O)N(CCc3ccccc3)C2c2ccncc2)o1` (configuration not stated) was inactive: 103%; that for `CCN(CC)C(=O)Cn1c(=O)n(Cc2ccc(C(=O)NCc3ccccc3Cl)cc2)c(=O)c2ccccc21` was inactive: 115%.

Regarding `COc1cc(C2C(=O)N(C3CCCCC3)CC(=O)N2Cc2ccc(C)cc2)ccc1OC(C)C` (configuration not stated), the survival is inactive: 89%. On to `O=C(CSc1nccn1-c1ccc(F)cc1)Nc1ccc(OC(F)(F)F)cc1`, for which the survival is inactive: 78%. For `CCOC(=O)c1c(-c2ccc(Br)cc2)csc1NC(=O)c1ccccc1F` the value was inactive: 60%; for `CC(C)OC(=O)/C(C#N)=C\c1cccs1`, inactive: 104%; for `CCC1CCCCN1S(=O)(=O)c1ccc(C(=O)Nc2sc3c(c2C(=O)NC)CCC3)cc1` (configuration not stated), inactive: 78%. Turning to `CCOCCCN1C(=O)CN(C2CCCCCC2)C(=O)C1c1ccc(OC(C)C)c(OC)c1` (configuration not stated), the survival is inactive: 97%. Regarding `CN1C(=O)CSC1=Nc1ccc(F)cc1`, the survival is inactive: 89%. As to `COc1ccc(OCC(=O)OCc2cc(=O)n3cc(C)sc3n2)cc1`, the survival is active: 6%. Turning to `CCc1ccccc1NC(=O)c1ccc2c(O)c(S(=O)(=O)c3ccccc3)c(=O)[nH]c2c1`, the survival is inactive: 92%. In the case of `COc1ccccc1CNC(=O)c1oc2ccc(S(=O)(=O)N3CCCCC3)cc2c1C`, the survival is inactive: 91%.

Take `COc1ccc(NC(=O)c2cc3nc(-c4ccc(C)c(C)c4)cc(C(F)(F)F)n3n2)cc1`: the survival is inactive: 60%. The value for `CCOc1ccc(NC(=O)CSc2nccn2Cc2ccco2)cc1` was inactive: 91%.

`CCC(=O)Nc1ccc2c(c1)C(=O)OC2`: the survival is inactive: 77%. For `COc1ccc(-c2nc3ccccc3s2)cc1NC(=O)COc1ccc(C)cc1` the value was inactive: 129%. With `COc1ccc(-c2cc(OC(=O)c3ccc(Cl)cc3)c3c(C)oc(C)c3c(=O)c2)cc1`, the survival was inactive: 80%. For `Cc1ccc(N(Cc2ccc(C(=O)NCc3ccco3)cc2)S(C)(=O)=O)cc1C` the value was inactive: 93%; for `Cc1ccc(C(=O)Nc2cccc(-c3nc4cccnc4s3)c2C)cc1`, inactive: 111%; for `Cc1cccc(CN2C(=O)c3ccccc3S(=O)(=O)c3ccc(C(=O)NCCC4=CCCCC4)cc32)c1`, inactive: 77%. For `COC(=O)c1ccc(Nc2nnc(-c3ccc(C)c(S(=O)(=O)N4CCN(C)CC4)c3)c3ccccc23)cc1` the value was inactive: 89%. With `CCCC(C)NS(=O)(=O)Cc1ccccc1` (configuration not stated), the survival is inactive: 83%.

Regarding `Cc1ccc(CSc2ncc(Cl)c(C(=O)NCCc3ccc(S(N)(=O)=O)cc3)n2)cc1`, the survival is inactive: 44%. For `CCOC(=O)C1CCN(C(=O)CCS(=O)(=O)c2cc3c(cc2Cl)NC(=O)CO3)CC1` the value was inactive: 92%; for `Cc1ccc(N(CC(=O)NCc2ccc(Cl)cc2)S(=O)(=O)N(C)C)cc1`, inactive: 83%. `COc1ccc(NC(=O)CSc2nc(-c3ccc(OC)cc3)[nH]c2-c2ccc(OC)cc2)cc1`: the survival was inactive: 71%. Consider `Cc1ccccc1NC(=O)CSc1nc(-c2ccccc2C)nc2cc(=O)[nH]n12`, for which the survival is inactive: 107%. Regarding `CCOc1ccc(NC(=O)N2CCN(S(=O)(=O)c3ccc4c(ccn4C)c3)CC2)cc1`, the survival is inactive: 78%.

Consider `COc1ccccc1N(CC(=O)NCCSCc1ccccc1)S(=O)(=O)c1ccc(C)cc1`, for which the survival was active: 41%.

With `CC(=O)N1CCN(c2csc3ccc(F)cc3c2=O)CC1`, the survival is inactive: 90%. For the compound `CCc1ccc(C(=O)c2cn(CC(=O)Nc3ccc(F)cc3)c3ccc(OC)cc3c2=O)cc1`, the survival is inactive: 74%.

With `COc1ccc(NC(=O)Cn2c(=O)n(C(C)C)c(=O)c3oc4ccccc4c32)cc1Cl`, the survival is active: 42%.

As to `O=C1CN(C(=O)Cc2ccc(F)cc2)C(c2ccccc2)c2cc(Cl)ccc2N1` (configuration not stated), the survival was inactive: 127%. The value for `CCCN1CCN(CCNC(=O)Nc2ccc(OC)cc2OC)CC1` was inactive: 88%; that for `O=C(CC1C(=O)N(c2ccccc2)C(=O)N1CCC1=CCCCC1)Nc1ccc(F)cc1` (configuration not stated) was inactive: 48%. For `COc1ccc(C2C(C#N)=C(N)OC3=C2C(=O)CCC3)cc1` (configuration not stated) the value was inactive: 97%; for `O=C(NC1CCCCC1)C1CC(c2ccccc2O)=NO1` (configuration not stated), inactive: 91%.

As for `Cc1ccc(Cl)cc1NC(=O)C(C)n1nnc2sc(-c3ccccc3)cc2c1=O` (configuration not stated), the survival is inactive: 59%.

In the case of `COC(=O)c1cccc(-n2c(CCC(=O)O)ccc2-c2ccc(OC)cc2)c1`, the survival is inactive: 65%.

For `COc1cc(/C=C/C(=O)O)cc(S(=O)(=O)N2CCc3ccccc32)c1OC`, the survival was inactive: 95%. Take `CCCCOc1ccc(S(=O)(=O)Nc2ccc(-c3ccc(N4CCCCCC4)nn3)cc2)cc1`: the survival is inactive: 72%. The value for `COc1cccc(CNC(=O)CCc2cn(Cc3ccccc3Cl)c3ccccc23)c1` was inactive: 104%; that for `CCOC(=O)c1c(C)oc2ncnc(N3CCN(c4ccccc4OC)CC3)c12` was inactive: 67%; that for `COc1ccc(Cn2c(SCc3ccc(C(=O)NC4CCCC4)cc3)nc3ccncc32)cc1` was inactive: 60%. For `O=C(COc1ccc2oc3c(c2c1)CCCC3)Nc1ccc(Br)cc1` the value was inactive: 89%; for `Cc1nn(-c2ccccc2)c(OC(=O)C(C)C)c1Sc1ccccc1`, inactive: 48%. For `Brc1cccc(CNCCSc2nnnn2-c2ccccc2)c1` the value was inactive: 71%. Take `CCc1ccccc1N(C)C(=O)Cc1c(C(=O)O)c(C)cn1C`: the survival was inactive: 94%. For `Cc1cc(C)c(NC(=O)C(C)n2nc(-c3ccc(C)c(C)c3)ccc2=O)c(C)c1` (configuration not stated) the value was inactive: 63%. As to `Cc1ccc(NC(=O)Cc2ccc(-n3c(C)nc4cccnc43)cc2)cc1C`, the survival is inactive: 98%.

On to `O=C(O)CC1=C(c2cccs2)CCC1=O`, for which the survival was inactive: 102%. The value for `COc1ccc(C(F)(F)F)cc1NC(=O)c1sc2nc(-c3cccs3)ccc2c1N` was inactive: 69%; that for `CC(=O)c1ccc(N2CCN(c3ncnc4c3c(-c3ccccc3)cn4-c3cccc(C)c3)CC2)cc1` was inactive: 113%; that for `Cc1cccc(N2CCN(c3ncnc4c3nc3n4CCCCC3)CC2)c1C` was inactive: 95%.

Take `CCOC(=O)c1ccc(NC(=O)c2c(-c3c(F)cccc3Cl)noc2C)cc1`: the survival is inactive: 59%.
